# Several values for one entry are separate records, joined by “and”; a condition that tells them apart may be missing. Identical values can stand only once. Hit rate of the full screen: of about 420,000 compounds, about 64,000 (15%) were called active. Inconclusive means that the source gave no clear call. Such entries were picked first, then a sample of the others. The call rests on the fitted dose curve; in most records, active means well fitted inhibition curve with a large enough effect; inconclusive means small, poorly fitted or top-dose-only effect; inactive means flat fitted curve, though single readings scatter. No potency is given beside an inconclusive call; the fits are too rough.
# Test: qHTS for Inhibitors of human tyrosyl-DNA phosphodiesterase 1 (TDP1): qHTS in cells in absence of CPT; further: nearly all actives have a fitted effect of over 55% in size
# Settings: DT40 Tdp1-/- hTDP1 cells, no CPT, ATP luminescence, 48 h; activity change, negative = growth inhibition: at 46.2 µM (top of the series)
# Summary of the method: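 Seeded 400 DT40-hTDP1 cells/well (vehicle DMSO, no 20 nM CPT); pinned compounds; ≥48 hr at 37 °C; CellTiter-Glo luminescence as viability measure.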
# On the % scale 0 is the no-effect control and ±100 the full control effect; potency means the concentration at half of the fitted maximal effect; tags describe the fitted curve by direction and shape.
SMILES,Potency,"activity change, negative = growth inhibition"
CCc1ccc(NC(=O)CSc2ccc3nc(-c4ccc(OC)cc4)cn3n2)cc1,"inconclusive [inhibitor, single point]",
COc1ccc(NC(=O)c2ccc(-c3ccc(-c4noc(C)n4)cc3C)cc2)cc1N1CCN(C)CC1,active: 5.96 µM and active: 2.24 µM and active: 2.06 µM,
CN(C)C(CNC(=O)c1ccc(NS(=O)(=O)c2ccc3[nH]c(=O)[nH]c3c2)cc1)c1ccccc1 (centres undefined),,inconclusive: -30.6% [inhibitor]
O=c1c(Br)c(Br)cnn1-c1ccccc1,active: 3.66 µM,
COc1ccccc1-c1sc2ccccc2c1-c1cnc(N2CCOCC2)nc1,"inconclusive [inhibitor, single point]",
CCOC(=O)[C@]12CCCC=C1N(Cc1ccc(Cl)cc1Cl)C(=O)[C@H](CC(=O)NCc1ccc(OC)c(OC)c1)C2,"inconclusive [inhibitor, single point]",
C=C1CC2C(=O)N(Cc3ccccc3)C(C(=O)OCC)(C(=O)OCC)C1N2C(=O)OC(C)(C)C (centres undefined),"inconclusive [inhibitor, single point]",
O=C(Nc1ccccc1N1CCOCC1)c1cccc(S(=O)(=O)Nc2ccccc2F)c1,,inactive: -1.9%
CC1(C(=O)Nc2ccc(Cl)cc2)Cc2c(-c3cccc(C(N)=O)c3)ccnc2O1 (centres undefined),active: 5.8 µM,
CCOCCn1c(CN2CCN(c3ccc(OC)cc3)CC2)nc2c1c(=O)n(C)c(=O)n2C,"inconclusive [inhibitor, single point]",
CCCCCCCCNC1=CC(=O)CC(C)(C)C1,active: 16.4 µM,
O=C(CCc1nnc(Cc2ccc(-c3ccccc3)cc2)o1)NCCc1ccccn1,"inconclusive [inhibitor, single point]",
Cc1ccn2c(CN3CCOCC3)c(-c3ccccc3)nc2c1,"inconclusive [inhibitor, single point]",
COc1ccc([N+](=O)[O-])cc1C(=O)NCCOc1ccc(Cl)cc1,"inconclusive [inhibitor, partial curve]",
COc1cc(CCC(=O)Nc2ccc(C)c(S(=O)(=O)N(C)C)c2)cc(OC)c1OC,active: 20.6 µM,
CC(C)Cn1c(/C=C/c2ccco2)nc2ccccc21,"inconclusive [inhibitor, single point]",
CC(=O)c1cc(C#N)c(SCC(=O)OC(C)C)nc1C,"inconclusive [inhibitor, single point]",
O=C(Nc1nnc(C2=COCCO2)o1)c1cccc(Br)c1,"inconclusive [inhibitor, single point]",
Cc1noc(N)c1C(=O)Nc1ccc(C(C)(C)C)cc1,"inconclusive [inhibitor, single point]",
COc1nc(OC)nc(N2CCC(C(=O)NCC3CCCCC3)CC2)n1,"inconclusive [inhibitor, partial curve]",
Cc1noc(COc2ccccc2OCc2onc(C)c2Cl)c1Cl,,inactive: -14.2%
CCC(=O)Nc1nnc(SCC(=O)NCC2CCCO2)s1 (centres undefined),active: 0.291 µM,

SMILES,Potency,"activity change, negative = growth inhibition"
Cc1ccc(C)c(SCC(=O)N(C)C2CCS(=O)(=O)C2)c1 (centres undefined),,inactive: 2.21%
Cc1ccccc1CNC(=O)c1oc2c(c1C)-c1nn(Cc3ccc(Cl)cc3)cc1CC2,active: 16.4 µM,
O=C(Nc1nc2ccccc2s1)c1ccc(N2CCCCC2)c([N+](=O)[O-])c1,active: 14.6 µM,
CCOC(=O)C1=C(COC(=O)c2cccnc2SC)NC(=O)NC1C (centres undefined),,inactive: -0.513%
COCCNC(=S)N(CCc1c(C)[nH]c2ccc(F)cc12)Cc1ccc(C)cc1,active: 18.4 µM,
CCc1sc(C(=O)Nc2ncccc2O)cc1C,"inconclusive [inhibitor, single point]",
O=C(NCC(c1ccc(F)cc1)N1CCOCC1)c1cccnc1Sc1ccccc1 (centres undefined),"inconclusive [inhibitor, single point]",
O=c1c2ccccc2nc(SCc2nnc(-c3ccccc3)o2)n1-c1ccc(F)cc1F,"inconclusive [inhibitor, single point]",
O=C(Nc1c2c(nn1-c1ccc(F)cc1)CS(=O)(=O)C2)C12CC3CC(CC(C3)C1)C2,"inconclusive [inhibitor, full curve, poor fit]",
O=C(N/N=C/c1cccnc1)c1ccc(NC(=O)c2ccc(Cl)cc2)cc1,,inconclusive: -32.2% [inhibitor]
Cc1ccc(C2CC2C(=O)NNC(=S)Nc2cccc(C)c2)cc1 (centres undefined),"inconclusive [inhibitor, partial curve, poor fit]",
Cc1ccc(NC(=O)NC(=O)N(c2ccccc2)S(C)(=O)=O)cc1,,inactive: -3.56%
COc1ccc(C(=O)NCc2ccccc2CN2CCCC2)cc1S(=O)(=O)Nc1ccc(C)cc1,"inconclusive [inhibitor, single point]",
O=[N+]([O-])c1cccnc1N1CCN(c2ccccc2F)CC1,"inconclusive [inhibitor, single point]",
CCNc1nc(NC(C)C)nc(Oc2ccc(OCc3ccccc3)nn2)n1,"inconclusive [inhibitor, single point]",
Cc1cc(-c2ccccc2)nc(N/N=C/c2ccc(N(C)C)cc2)n1,active: 14.6 µM,
CN(C)C(CNC(=O)c1ccc(S(=O)(=O)Nc2ccccc2F)cc1)c1ccco1 (centres undefined),"inconclusive [inhibitor, single point]",
Cc1onc(-c2ccccc2Cl)c1C(=O)N(Cc1ccccc1)C(C)C,"inconclusive [inhibitor, single point]",
CCOC(=O)CC(=O)CSc1nc(N)c(C#N)c(-c2ccc(Cl)cc2)c1C#N,,inactive: -8.17%
CNC(=O)c1c(NC(=O)C2=COCCO2)sc(C)c1C,,inactive: -7.68%
O=C(NCCc1nc2ccccc2[nH]1)/C(=C/c1ccc2c(c1)OCO2)NC(=O)c1ccc(Cl)cc1Cl,"inconclusive [inhibitor, single point]",
O=C(OCc1c(-c2ccccc2)ncc2ccccc12)c1ccc(Cl)cc1Cl,"inconclusive [inhibitor, partial curve, poor fit]",

# From PubChem BioAssay AID686978 (National Center for Advancing Translational Sciences (NCATS), 2013)
